According to the supplement of paper PMC4967469:

What was measured:
Assay in all cases: Viability of human cancer cell lines after 72 h of drug (GDSC screen)
[1] = compound: COCC(=O)NC/C=C/c1ccc2ncnc(Nc3ccc(Oc4ccc(C)nc4)c(C)c3)c2c1 [CP724714]; settings: top dose 10.24 µM; top dose inferred
Description: (§1)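 Human cancer cell lines in 384-well plates, medium with 10% serum, drug for 72 h over a 256-fold dose range (nine 2-fold or five 4-fold steps up to the top dose). Adherent lines were fixed and stained with the nucleic acid dye Syto60, suspension lines read with resazurin; signal relative to control wells, capped at 0 and 100%. One two-parameter sigmoid per drug and line, fitted in a mixed model over all curves with the slope shared within a line.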

[2] = compound: COC1=CC(c2cc3ccccc3[nH]2)=N/C1=C\c1[nH]c(C)cc1C [Obatoclax mesylate]; settings: top dose 16 µM
Description: as §1

[3] = compound: Cc1cnc(CNC(=O)c2c(=O)c3ccc(N4CCCN(C)CC4)nc3n3c2sc2ccccc23)cn1 [CX-5461]; settings: top dose 10.24 µM; top dose inferred
Description: as §1

[4] = compound: Cc1cccc(Nc2nc(-c3ccncc3)cs2)c1 [STF-62247]; settings: top dose 10.24 µM; top dose inferred
Description: as §1

In the case of PANC-04-03 (pancreas, adherent), the AUC [1] is reported as 0.977, the IC50 [1] is reported as over 10.2 µM and the AUC [2] is reported as 0.593. The IC50 [2] was 2.1 µM, the AUC [3] was 0.978 and the IC50 [3] was over 10.2 µM. It also gave an AUC [4] of 0.973 and an IC50 [4] of over 10.2 µM.

With PANC-08-13 (pancreas, adherent) the AUC [1] was 0.981, the IC50 [1] was over 10.2 µM and the AUC [2] was 0.506. For the same cell line, the IC50 [2] was 1.04 µM, the AUC [3] was 0.949 and the IC50 [3] was over 10.2 µM. The AUC [4] was 0.982 and the IC50 [4] was over 10.2 µM.

Work on PANC-10-05 (pancreas, adherent) yielded an AUC [1] of 0.974, an IC50 [1] of over 10.2 µM and an AUC [2] of 0.23. It also gave an IC50 [2] of 0.128 µM, an AUC [3] of 0.778 and an IC50 [3] of 5.4 µM. It also gave an AUC [4] of 0.965 and an IC50 [4] of over 10.2 µM.

PC-3 (prostate, adherent) gave an AUC [1] of 0.968, an IC50 [1] of over 10.2 µM and an AUC [2] of 0.588. The IC50 [2] was 1.84 µM, the AUC [3] was 0.925 and the IC50 [3] was over 10.2 µM. It also gave an AUC [4] of 0.962 and an IC50 [4] of over 10.2 µM.

“PC-3 [JPC-3] (lung adenocarcinoma, adherent)” gave an AUC [1] of 0.911, an IC50 [1] of over 10.2 µM and an AUC [2] of 0.443. The IC50 [2] was 0.664 µM, the AUC [3] was 0.918 and the IC50 [3] was over 10.2 µM. It also gave an AUC [4] of 0.979 and an IC50 [4] of over 10.2 µM.

PC-14 (lung adenocarcinoma, adherent) was tested, and the AUC [1] was 0.953, the IC50 [1] was over 10.2 µM and the AUC [2] was 0.19. For the same cell line, the IC50 [2] was 0.137 µM, the AUC [3] was 0.964 and the IC50 [3] was over 10.2 µM. For the same cell line, the AUC [4] was 0.947 and the IC50 [4] was over 10.2 µM.

Work on PCI-4B (head and neck, adherent) yielded an AUC [1] of 0.942, an IC50 [1] of over 10.2 µM and an AUC [2] of 0.066. It also gave an IC50 [2] of under 0.0625 µM, an AUC [3] of 0.815 and an IC50 [3] of 5.26 µM. It also gave an AUC [4] of 0.984 and an IC50 [4] of over 10.2 µM.

With PCI-6A (head and neck, adherent) the AUC [1] was 0.934, the IC50 [1] was over 10.2 µM and the AUC [2] was 0.211. It also gave an IC50 [2] of 0.144 µM, an AUC [3] of 0.598 and an IC50 [3] of 1.18 µM. It also gave an AUC [4] of 0.982 and an IC50 [4] of over 10.2 µM.

PCI-15A (head and neck, adherent) showed an AUC [1] of 0.968, an IC50 [1] of over 10.2 µM and an AUC [2] of 0.387. The IC50 [2] was 0.488 µM, the AUC [3] was 0.984 and the IC50 [3] was over 10.2 µM. It also gave an AUC [4] of 0.987 and an IC50 [4] of over 10.2 µM.

In the case of PCI-30 (head and neck, adherent), the AUC [1] is reported as 0.975, the IC50 [1] is reported as over 10.2 µM and the AUC [2] is reported as 0.759. For the same cell line, the IC50 [2] was 6.77 µM, the AUC [3] was 0.985 and the IC50 [3] was over 10.2 µM. For the same cell line, the AUC [4] was 0.983 and the IC50 [4] was over 10.2 µM.

With PCI-38 (head and neck, adherent) the AUC [1] was 0.961, the IC50 [1] was over 10.2 µM and the AUC [2] was 0.473. For the same cell line, the IC50 [2] was 0.842 µM, the AUC [3] was 0.924 and the IC50 [3] was over 10.2 µM. The AUC [4] was 0.971 and the IC50 [4] was over 10.2 µM.

PE/CA-PJ15 (head and neck, adherent) was tested, and the AUC [1] was 0.962, the IC50 [1] was over 10.2 µM and the AUC [2] was 0.679. It also gave an IC50 [2] of 3.32 µM, an AUC [3] of 0.984 and an IC50 [3] of over 10.2 µM. It also gave an AUC [4] of 0.986 and an IC50 [4] of over 10.2 µM.

PFSK-1 (medulloblastoma, adherent) gave an AUC [1] of 0.98, an IC50 [1] of over 10.2 µM and an AUC [2] of 0.53. For the same cell line, the IC50 [2] was 1.22 µM, the AUC [3] was 0.986 and the IC50 [3] was over 10.2 µM. The AUC [4] was 0.976 and the IC50 [4] was over 10.2 µM.

PL4 (pancreas, adherent) gave an AUC [1] of 0.98, an IC50 [1] of over 10.2 µM and an AUC [2] of 0.637. For the same cell line, the IC50 [2] was 2.43 µM, the AUC [3] was 0.96 and the IC50 [3] was over 10.2 µM. For the same cell line, the AUC [4] was 0.987 and the IC50 [4] was over 10.2 µM.

Cell Line PL18 (pancreas, adherent) has an AUC [1] of 0.973, an IC50 [1] of over 10.2 µM and an AUC [2] of 0.464. It also gave an IC50 [2] of 0.799 µM, an AUC [3] of 0.986 and an IC50 [3] of over 10.2 µM. For the same cell line, the AUC [4] was 0.984 and the IC50 [4] was over 10.2 µM.

For RCM-1 (large intestine, adherent), the AUC [1] was 0.972, the IC50 [1] was over 10.2 µM and the AUC [2] was 0.426. It also gave an IC50 [2] of 0.599 µM, an AUC [3] of 0.985 and an IC50 [3] of over 10.2 µM. For the same cell line, the AUC [4] was 0.985 and the IC50 [4] was over 10.2 µM.

RD (rhabdomyosarcoma, adherent) gave an AUC [1] of 0.985, an IC50 [1] of over 10.2 µM and an AUC [2] of 0.216. For the same cell line, the IC50 [2] was 0.134 µM, the AUC [3] was 0.736 and the IC50 [3] was 3.24 µM. The AUC [4] was 0.977 and the IC50 [4] was over 10.2 µM.

“RERF-LC-KJ (lung adenocarcinoma, adherent)” showed an AUC [1] of 0.983, an IC50 [1] of over 10.2 µM and an AUC [2] of 0.477. It also gave an IC50 [2] of 0.864 µM, an AUC [3] of 0.982 and an IC50 [3] of over 10.2 µM. For the same cell line, the AUC [4] was 0.984 and the IC50 [4] was over 10.2 µM.

“RERF-LC-MS (lung adenocarcinoma, adherent)” gave an AUC [1] of 0.977, an IC50 [1] of over 10.2 µM and an AUC [2] of 0.527. The IC50 [2] was 1.18 µM, the AUC [3] was 0.951 and the IC50 [3] was over 10.2 µM. It also gave an AUC [4] of 0.985 and an IC50 [4] of over 10.2 µM.

With “RERF-LC-Sq1 (lung squamous cell carcinoma, adherent)” the AUC [1] was 0.976, the IC50 [1] was over 10.2 µM and the AUC [2] was 0.761. It also gave an IC50 [2] of 8.34 µM, an AUC [3] of 0.956 and an IC50 [3] of over 10.2 µM. The AUC [4] was 0.974 and the IC50 [4] was over 10.2 µM.

RH-41 (rhabdomyosarcoma, adherent) showed an AUC [1] of 0.989, an IC50 [1] of over 10.2 µM and an AUC [2] of 0.414. The IC50 [2] was 0.607 µM, the AUC [3] was 0.99 and the IC50 [3] was over 10.2 µM. It also gave an AUC [4] of 0.992 and an IC50 [4] of over 10.2 µM.

In the case of RKN (ovary, adherent), the AUC [1] is reported as 0.972, the IC50 [1] is reported as over 10.2 µM and the AUC [2] is reported as 0.378. It also gave an IC50 [2] of 0.453 µM, an AUC [3] of 0.984 and an IC50 [3] of over 10.2 µM. The AUC [4] was 0.961 and the IC50 [4] was over 10.2 µM.

In the case of RMG-I (ovary, adherent), the AUC [1] is reported as 0.917, the IC50 [1] is reported as over 10.2 µM and the AUC [2] is reported as 0.492. The IC50 [2] was 0.95 µM, the AUC [3] was 0.932 and the IC50 [3] was over 10.2 µM. For the same cell line, the AUC [4] was 0.967 and the IC50 [4] was over 10.2 µM.

With RO82-W-1 (thyroid, adherent) the AUC [1] was 0.982, the IC50 [1] was over 10.2 µM and the AUC [2] was 0.626. It also gave an IC50 [2] of 2.46 µM, an AUC [3] of 0.981 and an IC50 [3] of over 10.2 µM. The AUC [4] was 0.977 and the IC50 [4] was over 10.2 µM.

In the case of RPMI-2650 (head and neck, adherent), the AUC [1] is reported as 0.978, the IC50 [1] is reported as over 10.2 µM and the AUC [2] is reported as 0.081. It also gave an IC50 [2] of under 0.0625 µM, an AUC [3] of 0.792 and an IC50 [3] of 5.06 µM. For the same cell line, the AUC [4] was 0.974 and the IC50 [4] was over 10.2 µM.

RPMI-7951 (melanoma, adherent) gave an AUC [1] of 0.956, an IC50 [1] of over 10.2 µM and an AUC [2] of 0.343. For the same cell line, the IC50 [2] was 0.373 µM, the AUC [3] was 0.684 and the IC50 [3] was 2.06 µM. The AUC [4] was 0.958 and the IC50 [4] was over 10.2 µM.

RT4 (bladder, adherent) was tested, and the AUC [1] was 0.953, the IC50 [1] was over 10.2 µM and the AUC [2] was 0.554. It also gave an IC50 [2] of 1.42 µM, an AUC [3] of 0.881 and an IC50 [3] of over 10.2 µM. The AUC [4] was 0.987 and the IC50 [4] was over 10.2 µM.

RT-112 (bladder, adherent) gave an AUC [1] of 0.978, an IC50 [1] of over 10.2 µM and an AUC [2] of 0.242. The IC50 [2] was 0.168 µM, the AUC [3] was 0.944 and the IC50 [3] was over 10.2 µM. The AUC [4] was 0.985 and the IC50 [4] was over 10.2 µM.

With RVH-421 (melanoma, adherent) the AUC [1] was 0.922, the IC50 [1] was over 10.2 µM and the AUC [2] was 0.218. It also gave an IC50 [2] of 0.106 µM, an AUC [3] of 0.894 and an IC50 [3] of over 10.2 µM. The AUC [4] was 0.957 and the IC50 [4] was over 10.2 µM.

In the case of SAS (head and neck, adherent), the AUC [1] is reported as 0.953, the IC50 [1] is reported as over 10.2 µM and the AUC [2] is reported as 0.146. It also gave an IC50 [2] of 0.0672 µM, an AUC [3] of 0.77 and an IC50 [3] of 4.35 µM. The AUC [4] was 0.969 and the IC50 [4] was over 10.2 µM.

With SAT (head and neck, adherent) the AUC [1] was 0.906, the IC50 [1] was over 10.2 µM and the AUC [2] was 0.747. It also gave an IC50 [2] of 7.74 µM, an AUC [3] of 0.938 and an IC50 [3] of over 10.2 µM. The AUC [4] was 0.947 and the IC50 [4] was over 10.2 µM.

IC50 is the fitted dose that halves viability relative to control wells, and lower means more sensitive; a limit (>, <) means that the fit lies beyond the doses tested. AUC sums up the same curve from the lowest dose to the 256-fold higher top dose; it is 1 without any effect and falls as sensitivity rises. For some assays here: Any top dose called inferred comes from the curve model; the source does not state it.
